# Laboratory results published in PubChem BioAssay AID588342 (National Center for Advancing Translational Sciences (NCATS), 2011).
# Screen size: about 360,000 compounds; about 25,000 (6.9%) were called active. The shares of active, inactive and inconclusive entries below differ from those in the screen. Calls follow the shape of the dose curve; as a rule, active = well fitted inhibition curve with a large enough effect; inconclusive = small, poorly fitted or top-dose-only effect; inactive = flat fitted curve, though single readings scatter. Potencies of inconclusive entries are doubtful fits and often do not repeat.
# Molecular target: Luciferin 4-monooxygenase (Photinus pyralis) (UniProt P08659)
# Assay: qHTS profiling assay for firefly luciferase inhibitor/activator using purifed enzyme and Km concentrations of substrates (counterscreen for miR-21 project); also: nearly all actives have a fitted effect of over 55% in size;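 as to activity change, negative = inhibition: plate controls were vehicle for no effect and reference inhibitor for full effect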
# Conditions: purified FLuc, luminescence inhibition; series mostly up to 57.5 µM; activity change, negative = inhibition: at the top concentration
# How it was run: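 Biochemical qHTS of compounds, final roughly 60 µM downward over six points, against 10 nM purified firefly luciferase using Km concentrations of substrates (10 uM D-luciferin, 10 uM ATP) in Tris acetate pH 7.5 buffer; luminescence output.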
# Potency is read from the fitted curve at half-maximal effect; tags tell the direction and shape of the fitted curve.
# Sequence of UniProt P08659 (P08659 whole entry, looked up): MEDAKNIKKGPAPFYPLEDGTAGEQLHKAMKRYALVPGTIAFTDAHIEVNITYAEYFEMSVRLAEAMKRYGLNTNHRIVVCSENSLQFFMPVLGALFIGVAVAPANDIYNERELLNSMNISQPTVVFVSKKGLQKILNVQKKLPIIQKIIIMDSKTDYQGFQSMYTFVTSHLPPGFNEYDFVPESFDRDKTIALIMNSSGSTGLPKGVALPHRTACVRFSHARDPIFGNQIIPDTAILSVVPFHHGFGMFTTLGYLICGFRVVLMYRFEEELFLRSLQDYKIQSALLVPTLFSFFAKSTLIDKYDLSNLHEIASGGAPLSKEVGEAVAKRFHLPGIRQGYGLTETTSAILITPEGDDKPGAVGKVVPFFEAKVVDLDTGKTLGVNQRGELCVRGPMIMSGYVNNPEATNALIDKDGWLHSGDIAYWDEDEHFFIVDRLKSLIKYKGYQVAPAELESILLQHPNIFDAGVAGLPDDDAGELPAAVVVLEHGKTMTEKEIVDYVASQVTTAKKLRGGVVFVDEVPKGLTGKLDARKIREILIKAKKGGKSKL
SMILES,Potency,"activity change, negative = inhibition"
COc1ccc2[nH]c(O)c(N=NC(=O)c3ccc(NS(=O)(=O)c4cccs4)cc3)c2c1,"inconclusive: 0.478 µM [inhibitor, full curve, poor fit]",
O=C(Cn1cc(SCc2cccc(Cl)c2)c2ccccc21)N1CCCCC1,"inconclusive: 10.7 µM [inhibitor, partial curve, poor fit]",
COc1cccc(C(=O)O/N=C(\N)c2ccccn2)c1OC,active: 0.953 µM,
CC(=O)c1ccc(OCc2cc(C(=O)N3CCOCC3)no2)cc1,active: 16.9 µM,
CN(C)S(=O)(=O)c1cccc(NC(=O)COC(=O)c2cc(-c3cccc(Br)c3)nc3ccccc23)c1,"inconclusive: 37.9 µM [inhibitor, single point]",
N#Cc1cc2c(nc1SCc1cccnc1)CCCC2,"inconclusive: 23.9 µM [inhibitor, partial curve, poor fit]",
O=C(Nc1cccc([N+](=O)[O-])c1)NC1CCCCCCC1,active: 12 µM,
O=C(NCCS(=O)(=O)NCCCc1ccccc1)c1ccccc1,,inactive: -6.64%
Cc1noc(C)c1S(=O)(=O)N1CCCC1C(=O)NC(C)(C)C (configuration not stated),,inactive: -1.05%
O=C(Nc1ccccn1)c1ccc(Cl)s1,"inconclusive: 13.5 µM [inhibitor, partial curve, poor fit]",
COc1ccc(C2=NCCn3nc4ccccc4c32)cc1,"inconclusive: 30.1 µM [inhibitor, single point]",
COc1ccc(S(=O)(=O)c2c(C(=O)c3ccc(C)c(C)c3)cnc3ccc(C)cc23)cc1,,inactive: -2.63%
O=C(N/N=C/c1cccc(O)c1)c1cc(-c2ccccc2)nc2ccccc12,active: 10.7 µM,
CCCCCCn1c(=O)c(Cc2ccccc2)c(O)c2ccccc21,"inconclusive: 12 µM [inhibitor, partial curve]",
CCOC(=O)c1sc(-c2ccccn2)nc1C,active: 26.9 µM,
O=C(Nc1nc(-c2ccccc2)cs1)NC1CCCCC1,"inconclusive: 16.9 µM [inhibitor, partial curve]",
COc1ccc(C)cc1NC(=O)NCCC1=CCCCC1,"inconclusive: 26.9 µM [inhibitor, single point]",
CCOc1cc(/C=C2/N=C(c3ccc4c(c3)OCO4)OC2=O)ccc1OC(C)=O,,inactive: -12.8%
Cc1nn(CC(=O)Nc2ccc3c(c2)nc2n3CCN(C3CCCCC3)C2)c(=O)c2ccccc12,active: 21.3 µM,
O=C(O)c1ccc2c(c1)C(=O)N(c1ccc(/C=C/C(=O)c3ccccc3)cc1)C2=O,"inconclusive: 16.9 µM [inhibitor, partial curve]",
COCCN(C(=O)CSc1nnc(Nc2ccccc2F)s1)c1c(N)n(Cc2ccccc2)c(=O)[nH]c1=O,"inconclusive: 26.9 µM [inhibitor, partial curve, poor fit]",
O=C(COC(=O)CNC(=O)c1ccc(Cl)cc1)Nc1cccc(S(=O)(=O)N2CCCC2)c1,"inconclusive: 23.9 µM [inhibitor, single point]",
Cc1c2cnn(CC(=O)NC(C)C)c(=O)c2c(C)n1Cc1cccc(Cl)c1,,inactive: -7.54%
CCNC(=O)c1ccc2c(c1)sc1nc(-c3cccc(OC)c3)cn12,,inactive: -7.95%

SMILES,Potency,"activity change, negative = inhibition"
CCOC(=O)c1cc(-c2cccs2)[nH]n1,"inconclusive: 33.8 µM [inhibitor, single point]",
NC(=O)c1ccsc1NC(=O)c1ccco1,"inconclusive: 26.9 µM [inhibitor, single point]",
COc1cccc(C2=NN(C(=O)c3ccco3)C(O)(C(F)(F)F)C2)c1 (configuration not stated),"inconclusive: 23.9 µM [inhibitor, partial curve, poor fit]",
Cc1cc2c(cc1NS(=O)(=O)c1ccc(NC(=O)CC(C)C)cc1)n(C)c(=O)c(=O)n2C,,inactive: -19.9%
O=C(COC(=O)COc1ccccc1[N+](=O)[O-])NC1CCCCC1,,inactive: -1.32%
CC1CCN(C(=O)COC(=O)CNC(=O)C23CC4CC(CC(C4)C2)C3)CC1,,inactive: -0.25%
O=C(Nc1ccc([N+](=O)[O-])cc1)c1ccccc1F,"inconclusive: 12 µM [inhibitor, partial curve, poor fit]",
COc1ccc(NC(=S)NNc2ccc([N+](=O)[O-])cc2S(=O)(=O)Nc2ccc(C)cc2C)cc1,"inconclusive: 37.9 µM [inhibitor, partial curve, poor fit]",
Cc1ccccc1C(=O)Nc1ccc(S(=O)(=O)Nc2onc(C)c2C)cc1,"inconclusive: 13.5 µM [inhibitor, partial curve, poor fit]",
CCC(Sc1nnc2c(n1)[nH]c1ccccc12)C(=O)Nc1ccccc1OC (configuration not stated),"inconclusive: 21.3 µM [inhibitor, single point]",
O=C(O)c1ccccc1N/N=C\c1ccnc2ccccc12,active: 0.169 µM,
O=C(CSc1nnc(NC(=O)c2ccco2)s1)Nc1ccc2c(c1)OCCO2,active: 13.5 µM,
CC(C)Oc1ccc(C(=O)Nc2ccc3c(c2)n(C)c(=O)n3C)cc1,active: 12 µM,
Cc1ccc(Cn2c(SCC(=O)N/N=C/c3ccc(C)o3)nc3ccccc32)cc1,"inconclusive: 21.3 µM [inhibitor, partial curve, poor fit]",
COc1ccc(CCNC(=O)CCc2c(C)nc3c4cccnc4nn3c2C)cc1OC,,inactive: -3.75%
COc1ccccc1CNC(=O)Cn1cccc1C(=O)c1ccccc1C,"inconclusive: 30.1 µM [inhibitor, single point]",
O=C(Nc1nccs1)c1ccc(CSc2ccccc2)o1,active: 5.36 µM,
CCOC(=O)c1ccc(NC(=S)N(CCCN2CCN(CC)CC2)Cc2cccs2)cc1,,inactive: 0.155%
COC(=O)c1ccc(CO/N=C/c2ccc(OC)cc2)o1,"inconclusive: 37.9 µM [inhibitor, partial curve, poor fit]",
O=c1[nH][nH]c(=O)c2c(NS(=O)(=O)c3ccccc3)cccc12,active: 19 µM,
CCc1ccc(-n2cc(-c3ccc(F)cc3)[n+]3c2SCCC3)cc1,,inactive: 1.68%
O=C(CSc1nnnn1-c1cccc2ccccc12)Nc1ccc(N2CCOCC2)c(Cl)c1,"inconclusive: 15.1 µM [inhibitor, partial curve, poor fit]",
CCn1c(CNC(=O)Cc2ccc(OC)cc2)nnc1SCC(=O)Nc1ccc(C(=O)O)cc1,"inconclusive: 37.9 µM [inhibitor, partial curve, poor fit]",
COC(=O)Cc1c(C)c2ccc(OC3CCCCC3=O)cc2oc1=O (configuration not stated),"inconclusive: 37.9 µM [inhibitor, partial curve, poor fit]",

SMILES,Potency,"activity change, negative = inhibition"
CCn1c(-c2cc(-c3cccc(OC)c3)nc3ccccc23)n[nH]c1=S,active: 23.9 µM,
COc1ccc(S(=O)(=O)c2c(Nc3ccc(C)cc3C)sc(C(=O)c3ccc(F)cc3)c2N)cc1,,inactive: -0.0709%
Cc1cc(C)c(NC(=O)C2CCN(S(=O)(=O)c3c(C)noc3/C=C/c3ccccc3F)CC2)c(C)c1,,inactive: -5.4%
CSc1ccccc1NC(=O)Nc1ccc(F)c(Cl)c1,active: 12 µM,
CN(C)c1ccc(C(CNC(=O)c2ccccc2Cl)N2CCCC2)cc1 (configuration not stated),,inactive: 3.63%
CC(C)CNC(=S)NC(=O)c1ccccc1Cl,"inconclusive: 10.7 µM [inhibitor, partial curve, poor fit]",
Cc1ccc(Nc2nc(N)nc(COC(=O)C3=COCCO3)n2)cc1,active: 13.5 µM,
O=C(NC(=S)Nc1ccccc1Cl)C1CC1,"inconclusive: 33.8 µM [inhibitor, partial curve, poor fit]",
Cc1ccc(-c2ccc(SCC(=O)Nc3nonc3C)nn2)cc1,active: 12 µM,
O=C(CN1C(=O)S/C(=C\C=C\c2ccccc2)C1=O)NC1CCS(=O)(=O)C1 (configuration not stated),active: 5.36 µM,
CC(=O)c1c(C)[nH]c(C(=O)N2CCN(c3ccccn3)CC2)c1C,,inactive: -0.595%
O=C1c2cccc3cccc(c23)C(=O)N1CCCCCc1n[nH]c(=S)o1,"inconclusive: 19 µM [inhibitor, partial curve]",
CCN(CC(=O)Nc1ccc(NC(C)=O)cc1)C(=O)c1cccnc1Sc1ccc(C)c(C)c1,"inconclusive: 30.1 µM [inhibitor, partial curve, poor fit]",
CN(C)S(=O)(=O)c1ccc(C(=O)Nc2ccc(Cl)cc2)cc1,"inconclusive: 21.3 µM [inhibitor, single point]",
Cc1[nH]n(-c2cccc3ccccc23)c(=O)c1/C=N/NC(=O)c1cccc([N+](=O)[O-])c1,"inconclusive: 26.9 µM [inhibitor, single point]",
O=C(O)/C=C/C(=O)Nc1ccc2nccnc2c1,"inconclusive: 23.9 µM [inhibitor, partial curve, poor fit]",
CCC(CC)c1nnc(NC(=O)C2CC(=O)N(CCc3ccc(OC)c(OC)c3)C2)s1 (configuration not stated),,inactive: 3.4%
CCOc1ccc(C(=O)OCc2cc(=O)n3nc(C4CC4)sc3n2)cc1,,inactive: -10.3%
O=C(Nc1ccc2c(c1)OCO2)C1CC1,"inconclusive: 28.2 µM [inhibitor, single point]",
CCN(CC)c1ccc(/C=C(\C#N)C(=O)c2ccc(Br)cc2)cc1,"inconclusive: 15.1 µM [inhibitor, partial curve, poor fit]",
COCCNC(=O)c1ccc(CSc2nc3ccccc3s2)cc1,"inconclusive: 26.9 µM [inhibitor, single point]",
O=C(COc1ccc(OCc2ccccc2)cc1)NC1CCOC1=O (configuration not stated),active: 21.3 µM,
C/C(=N\NC(=S)NCc1ccccc1)c1cccs1,"inconclusive: 23.9 µM [inhibitor, single point]",
CCOc1c(Br)cc(/C=N\NC(=O)c2ccccc2)cc1OC,active: 5.36 µM,
